Some of the results follow.
B1: 137713489_137715367_815_CDS_ENSG00000120733_ENST00000314358|human|control|control (ssRNA)
RNA: GGGAGUUCUACAGUCCGACGAUCGAUGGAGUCCUGAUGGCUCACAACACCAUAGAGCCACCCUUCUUCCCCCUCUGGCUGAUAUAUUUUGACCCUGUGACCUUGAACACUGUAGGGACCUCGGCUGAAUAUCUCUUGUAGCUUCAACAGAGGAUUGAGCAUCA
B2: chr1:180251892:180251893:+_ENSMUSG00000026500_ENSMUST00000027781|mus_mus|motif|central (ssRNA)
RNA: GGGAGUUCUACAGUCCGACGAUCAUGAGCCAUAGAGUAUAGAUUCUCGAGCACAUGGAGUGUUCUCAACAUCUAAAAUACCGGGGAGCUUGAAGGGCUUUUUCUCCGUCUCGUGGGGCUCCGGGGCGGCCGCCAUGGGCACCACAACAGAGGAUUGAGCAUCA
B3: chr11:77336104:77336105:-_ENSG00000074201_ENST00000525064|hu_mus|hu_hu_hu_mus_False|18_58 (ssRNA)
RNA: GGGAGUUCUACAGUCCGACGAUCCUCACACAUUGCUGUGAACAUCGCCUCCAAUGCUGACUUAUCACUGGGCACAAAUCUAAAUUCAGAAAUGGGUUCAACAUCAUCAUUGUCUUCUUCCUCUUCUUCAGAGAGAGGUUCUUUCAACAGAGGAUUGAGCAUCA
B4: chr4:95690885:95690886:+_ENSMUSG00000028572_ENSMUST00000156910|mus_mus|mus_mus_mus_hu_False|28_78 (ssRNA)
RNA: GGGAGUUCUACAGUCCGACGAUCUUUAGAAAAUGUUAAAUACCAUGCUAAAAUAUUGUAAUUUUAAUAUUUUAUUUUACCAGAAGUCACAGGCAAGCAGACACUACAAACAUACAAGAAAAUGAAACUCAACAAUAUAACUGUCAACAGAGGAUUGAGCAUCA
B5: 26418582_26418702_1127_3pUTR_ENSMUSG00000024188_ENSMUST00000114976|mouse|control|control (ssRNA)
RNA: GGGAGUUCUACAGUCCGACGAUCGCCAGCCUCCUUCUCCUCCGACCUCCGCGAUGCAGUCUUGCCAUUGGAAUUCUCCAGCCUCCAGUCAGUGGGCCCUCGUUCAUUCCGCCCGUACUCCCAGGAUUCCUCUCUCAAUGAGCGCAACAGAGGAUUGAGCAUCA
B6: chr19:16212804:16212805:+_ENSG00000167460_ENST00000300933|hu_mus|hu_hu_hu_mus_False|18_58 (ssRNA)
RNA: GGGAGUUCUACAGUCCGACGAUCAACAAUUCUGGAGUGAAGGAAAGAUGUAACAUGGAACAGCAUUAAAGCUCAGUAUUACUAUAUAUGGGCAACAAUGAUCACCCCAGCAUUCUCCUACGUUGACCUUAAAGACAAUCUGUUCAACAGAGGAUUGAGCAUCA

molecular target: T1, UNK ZnF1-3 (human, UniProt Q9C0B0 31-174); test: nsRBNS (natural sequence RNA bind-n-seq); RBNS binding buffer (assumed for nsRBNS): 25 mM Tris pH 7.5, 150 mM KCl, 3 mM MgCl2, 0.01% Triton X-100, 500 ug/ml BSA, 20 U/ml SUPERase-In, 4 C; UNK is unkempt and MSI1 is Musashi-1; names of the RNAs are library labels; protein concentration not given here; high values mean tight binding
T1 sequence: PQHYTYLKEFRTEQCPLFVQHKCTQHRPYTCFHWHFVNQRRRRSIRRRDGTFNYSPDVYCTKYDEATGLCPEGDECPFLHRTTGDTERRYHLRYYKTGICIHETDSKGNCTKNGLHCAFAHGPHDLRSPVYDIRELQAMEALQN

Binder	binding signal
B1	0.98 enrichment R
B2	1.05 enrichment R
B3	0.85 enrichment R
B4	2.26 enrichment R
B5	0.952 enrichment R
B6	1.18 enrichment R
